Article PMC4336329 (PLoS ONE, 2015)
The whole screen tested about 310,000 compounds, of which about 2,200 (0.71%) showed an effect of 50% or more. The effect is printed as a negative number. The list shows a part of the results.

target: human ether-à-go-go-related gene (hERG) potassium channel (human, UniProt Q12809); test: primary screen, population patch clamp on CHO cells stably expressing hERG
Sequence (Q12809 whole entry, looked up): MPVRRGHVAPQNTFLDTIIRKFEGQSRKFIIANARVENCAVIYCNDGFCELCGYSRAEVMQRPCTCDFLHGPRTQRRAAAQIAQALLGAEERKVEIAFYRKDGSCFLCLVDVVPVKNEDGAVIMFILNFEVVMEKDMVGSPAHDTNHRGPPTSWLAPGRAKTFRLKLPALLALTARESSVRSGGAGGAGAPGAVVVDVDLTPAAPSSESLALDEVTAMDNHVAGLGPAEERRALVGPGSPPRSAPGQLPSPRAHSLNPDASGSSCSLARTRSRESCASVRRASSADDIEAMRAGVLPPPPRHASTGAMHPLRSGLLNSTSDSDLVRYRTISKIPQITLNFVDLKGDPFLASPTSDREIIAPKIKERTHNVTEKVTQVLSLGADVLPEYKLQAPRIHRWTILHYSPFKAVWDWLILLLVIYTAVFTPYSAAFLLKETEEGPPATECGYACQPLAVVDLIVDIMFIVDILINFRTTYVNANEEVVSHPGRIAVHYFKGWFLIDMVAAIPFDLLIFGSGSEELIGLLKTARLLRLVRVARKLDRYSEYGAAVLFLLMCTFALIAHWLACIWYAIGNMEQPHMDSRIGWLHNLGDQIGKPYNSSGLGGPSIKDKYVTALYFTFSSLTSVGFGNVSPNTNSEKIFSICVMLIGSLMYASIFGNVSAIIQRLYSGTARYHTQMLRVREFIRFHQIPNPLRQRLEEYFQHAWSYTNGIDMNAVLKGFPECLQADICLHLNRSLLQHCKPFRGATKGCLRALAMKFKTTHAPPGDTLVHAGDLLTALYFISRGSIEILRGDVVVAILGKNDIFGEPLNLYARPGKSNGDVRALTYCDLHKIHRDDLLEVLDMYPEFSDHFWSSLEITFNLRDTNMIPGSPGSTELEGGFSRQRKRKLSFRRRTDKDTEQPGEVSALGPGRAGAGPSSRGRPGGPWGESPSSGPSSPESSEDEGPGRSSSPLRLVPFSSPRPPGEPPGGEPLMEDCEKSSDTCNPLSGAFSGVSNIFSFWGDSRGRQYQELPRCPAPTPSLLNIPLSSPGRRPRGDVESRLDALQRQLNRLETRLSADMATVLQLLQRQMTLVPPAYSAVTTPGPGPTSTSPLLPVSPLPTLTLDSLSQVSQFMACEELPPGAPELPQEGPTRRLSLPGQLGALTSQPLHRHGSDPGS

Structure (SMILES) | hERG current change (%, negative = inhibition) at 1uM
Nc1cccc(-n2nnnc2CN2CCOCC2)c1 | 7.84%
CC(NS(=O)(=O)c1ccc(Br)cc1)C(c1cccs1)N1CCOCC1 (stereo not shown) | 2.31%
CCC(=O)N(Cc1cc2cc(OC)ccc2[nH]c1=O)c1ccc(C)cc1C | -6.17%
COc1ccc(CN2CCN(Cc3cc4ccccc4o3)CC2CCO)cc1C (stereo not shown) | -1.29%
CC(C)c1ccc(NC(=O)CSc2nc(=O)n(CCN3CCOCC3)c3c2CCC3)cc1 | -8.26%
Cc1cc(=O)[nH]c(SCc2nc3ccccc3s2)n1 | 6.67%
COc1ccc(NC(=S)NCCc2c[nH]c3ccccc23)cc1 | 6.94%
O=C(CN1C(=O)c2ccccc2C1=O)Nc1ccccc1C(F)(F)F | 7.93%
CN(C)S(=O)(=O)N1C(=O)c2ccccc2C1=O | 20.8%
CC1(CCc2ccccc2)NC(=O)N(Cc2cc([N+](=O)[O-])cc3c2OCOC3)C1=O (stereo not shown) | 8.5%
O=C(Cc1ccccc1)n1nc(-c2ccco2)nc1SCc1ccccc1 | 2.06%
COC(=O)CSc1nnc(-c2ccc(S(=O)(=O)N3CCC(C)CC3)cc2)o1 | 11.5%
COc1ccc(N2C(=O)NC(=O)/C(=C\c3cn(CC(=O)N4CCOCC4)c4ccccc34)C2=O)c(OC)c1 | 9.03%
CC(NCc1ccccc1Cl)C(=O)Nc1ccc(S(=O)(=O)N2CCCC2)cc1 (stereo not shown) | 15.5%
COc1ccc(N2Cc3cccc(C(=O)O)c3C2=O)cc1 | 0.823%
O=C(/C=C/c1ccccc1)Nc1cc(NC(=O)/C=C/c2ccccc2)cc(C(=O)O)c1 | 13.8%
COCc1cc(C)nc(SCc2ccc(Cl)cc2)c1C#N | -4.21%
Cc1cccc(-n2ncc3c(=O)[nH]c(SCC(=O)NCCC4=CCCCC4)nc32)c1 | 17.5%
COc1ccc(-n2cc(CNCc3cccnc3)c(-c3cccc(F)c3)n2)cc1 | 9.07%
C[C@@H](OC(=O)N1CCCCC1)[C@H]1O[C@]2(C)CCCC[C@H]1O2 | 8.67%
c1cncc(-c2nnc(-c3cccnc3)nn2)c1 | 10.2%
CCCCNC(=O)Cc1coc2ccc3ccccc3c12 | -3.45%

Structure (SMILES) | hERG current change (%, negative = inhibition) at 1uM
O=C(NCc1ccc2c(c1)OCO2)c1c(O)c2cccc3c2n(c1=O)CCC3 | 4.97%
CCOC(=O)C1=C(CN2CCSCC2)NC(=O)NC1c1cccc([N+](=O)[O-])c1 (stereo not shown) | 2.95%
COc1ccc(C(=O)NC2=Nc3ccccc3N=C(C)C2c2ccccc2)cc1 (stereo not shown) | 3.47%
COc1ccccc1Nc1nccc(N(C)C)c1C#N | 11.1%
O=c1[nH]c(-[n+]2ccc3ccccc3c2)c(/C=N/N=C(\[O-])c2ccccc2)s1 | 15%
OC1/C(=C/c2ccccc2C(F)(F)F)N2CCC1CC2 (stereo not shown) | 7.33%
Cc1c(N2C(=O)c3ccccc3C2=O)c(=O)n(-c2ccccc2)n1C | -12.3%
O=C(NC(CO)(CO)CO)c1coc(=O)c(Br)c1 | 10.7%
CCOc1cccc(/C=N/Nc2nc(N3CCCC3)nc(N3CCCC3)n2)c1O | 13.5%
COC(=O)c1ccc(SCC(=O)NC2CCCC2)c([N+](=O)[O-])c1 | 1.34%
COCCCn1c(=O)/c(=C\c2cccc(OC)c2OC)s/c1=C(/C#N)C(=O)Nc1ccc(C(=O)O)cc1 | 9.59%
COc1ccc(F)cc1C(=O)C1CCCN(Cc2c[nH]c3ccccc23)C1 (stereo not shown) | -18.6%
Cc1cc(NC(=O)COC(=O)c2c(C)nn(Cc3ccccc3)c2C)no1 | -0.494%
Cc1ccc(S(=O)(=O)N2CCC(=O)N(C(COCc3cccc(C(F)(F)F)c3)Cc3ccccc3)CC2)cc1 (stereo not shown) | 8.15%
CCCCn1nc2cc(C(=O)NCC34CC5CC(CC(C5)C3)C4)ccc2c1OC | 9.66%
Cn1c(-c2ccccc2)nc2cnccc21 | 6.29%
Cc1cc(OC(=O)c2ccc(F)cc2)c([N+](=O)[O-])c(=O)[nH]1 | 17.1%
O=C(N/N=C/c1ccco1)c1ccccn1 | 8.4%
CC1CCN(C2(O)C(=O)Nc3ccc(Br)cc32)CC1 (stereo not shown) | 6%
CCOC(=O)CN(C(=O)CSc1nnc(-c2cccc(OC)c2)o1)c1ccc(F)cc1 | -11.6%
O=C(O)CC(CC(=O)Nc1ccc(Oc2ccccc2)cc1)c1ccccc1 (stereo not shown) | 12.2%
